# Laboratory results reported in the supplement of paper PMC8728848.
# This is one part of the list.
# B1: AAL (Agrocybe aegerita), Q6WY08 (protein)
# chain: MQGVNIYNISAGTSVDLAAPVTTGDIVTFFSSALNLNAGAGNPNNTTLNLFAENGAYLLHIAHRLQENVIIFNSRQPDGPWLVEQRVSDVANQFAGIDGKAMVTVFDHGDKYQVVINEKTVIQYTKQISGLTLSLSYNATEETSIFSTVVEAVTYTGLALEHHHHHH
# Assays:
# Experiment in all cases: glycan array binding signal (z-score within array); higher = stronger binding
# Conditions in all cases: glycan notation: IUPAC condensed, linker removed; mutation: F63H
# [1] = target: Man(a1-2)Man(a1-3)[Man(a1-2)Man(a1-6)]Man
# In short: (§1)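 Negative Z-scores can be read as non-binding. The Z-score is calculated within each array and then averaged across arrays of one protein sequence at different concentrations or buffers and across linkers. Arrays, 3228 in all, were curated from the Consortium for Functional Glycomics database and kept only where the protein sequence was available.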
# [2] = target: Man(a1-2)Man(a1-3)[Man(a1-2)Man(a1-6)]Man(a1-6)[Man(a1-2)Man(a1-2)Man(a1-3)]Man
# In short: as §1
# [3] = target: Man(a1-2)Man(a1-3)[Man(a1-2)Man(a1-6)]Man(a1-6)[Man(a1-2)Man(a1-2)Man(a1-3)]Man(b1-4)GlcNAc(b1-4)GlcNAc
# In short: as §1
# [4] = target: Man(a1-2)Man(a1-3)[Man(a1-6)]Man(a1-6)[Man(a1-2)Man(a1-3)]Man(b1-4)GlcNAc(b1-4)GlcNAc
# In short: as §1
# [5] = target: Man(a1-2)Man(a1-6)[Man(a1-3)]Man(a1-6)[Man(a1-2)Man(a1-2)Man(a1-3)]Man
# In short: as §1
# [6] = target: Man(a1-2)Man(a1-6)[Man(a1-3)]Man(a1-6)[Man(a1-2)Man(a1-2)Man(a1-3)]Man(b1-4)GlcNAc(b1-4)GlcNAc
# In short: as §1
# [7] = target: Man(a1-3)[Man(a1-6)]Man
# In short: as §1
# [8] = target: Man(a1-3)[Man(a1-6)]Man(a1-6)[Man(a1-2)Man(a1-3)]Man(b1-4)GlcNAc(b1-4)GlcNAc
# In short: as §1
# [9] = target: Man(a1-3)[Man(a1-6)]Man(a1-6)[Man(a1-3)]Man
# In short: as §1
# [10] = target: Man(a1-3)[Man(a1-6)]Man(a1-6)[Man(a1-3)]Man(b1-4)GlcNAc(b1-4)GlcNAc
# In short: as §1
# [11] = target: Man(a1-3)[Man(a1-6)]Man(b1-4)GlcNAc(b1-4)GlcNAc
# In short: as §1
# [12] = target: Man(a1-3)[Man(a1-6)]Man(b1-4)GlcNAc(b1-4)[Fuc(a1-6)]GlcNAc
# In short: as §1
# [13] = target: Man(a1-6)Man
# In short: as §1
# [14] = target: Man(b1-4)GlcNAc
# In short: as §1
# [15] = target: MurNAc(b1-4)GlcNAc
# In short: as §1
# [16] = target: Neu5Ac(a2-3)Gal
# In short: as §1
# [17] = target: Neu5Ac(a2-3)Gal(b1-3)GalNAc
# In short: as §1
# [18] = target: Neu5Ac(a2-3)Gal(b1-3)GalNAc(b1-3)Gal(a1-4)Gal(b1-4)Glc
# In short: as §1
# [19] = target: Neu5Ac(a2-3)Gal(b1-3)GalNAc(b1-4)Gal(b1-4)Glc
# In short: as §1
# [20] = target: Neu5Ac(a2-3)Gal(b1-3)GalNAc(b1-4)[Neu5Ac(a2-3)]Gal(b1-4)Glc
# In short: as §1
# [21] = target: Neu5Ac(a2-3)Gal(b1-3)GalNAc(b1-4)[Neu5Ac(a2-8)Neu5Ac(a2-3)]Gal(b1-4)Glc
# In short: as §1
# [22] = target: Neu5Ac(a2-3)Gal(b1-3)GalNAc6S
# In short: as §1
# [23] = target: Neu5Ac(a2-3)Gal(b1-3)GlcNAc
# In short: as §1
# [24] = target: Neu5Ac(a2-3)Gal(b1-3)GlcNAc(b1-2)Man
# In short: as §1
# [25] = target: Neu5Ac(a2-3)Gal(b1-3)GlcNAc(b1-2)Man(a1-3)[GlcNAc(b1-4)][Neu5Ac(a2-3)Gal(b1-3)GlcNAc(b1-2)Man(a1-6)]Man(b1-4)GlcNAc(b1-4)GlcNAc
# In short: as §1
# [26] = target: Neu5Ac(a2-3)Gal(b1-3)GlcNAc(b1-2)Man(a1-3)[Neu5Ac(a2-3)Gal(b1-3)GlcNAc(b1-2)Man(a1-6)]Man(b1-4)GlcNAc(b1-4)GlcNAc
# In short: as §1
# [27] = target: Neu5Ac(a2-3)Gal(b1-3)GlcNAc(b1-2)[Neu5Ac(a2-3)Gal(b1-3)GlcNAc(b1-4)]Man(a1-6)[Neu5Ac(a2-3)Gal(b1-3)GlcNAc(b1-2)Man(a1-3)]Man(b1-4)GlcNAc(b1-4)GlcNAc
# In short: as §1
# [28] = target: Neu5Ac(a2-3)Gal(b1-3)GlcNAc(b1-3)Gal(b1-3)GlcNAc
# In short: as §1
# [29] = target: Neu5Ac(a2-3)Gal(b1-3)GlcNAc(b1-3)Gal(b1-4)GlcNAc
# In short: as §1
# [30] = target: Neu5Ac(a2-3)Gal(b1-3)GlcNAc(b1-3)GalNAc
# In short: as §1
# [31] = target: Neu5Ac(a2-3)Gal(b1-3)GlcNAc(b1-6)GalNAc
# In short: as §1
# [32] = target: Neu5Ac(a2-3)Gal(b1-3)GlcNAc6S
# In short: as §1
# [33] = target: Neu5Ac(a2-3)Gal(b1-3)[Fuc(a1-4)]GlcNAc
# In short: as §1
# [34] = target: Neu5Ac(a2-3)Gal(b1-3)[Fuc(a1-4)]GlcNAc(b1-3)Gal(b1-3)[Fuc(a1-4)]GlcNAc
# In short: as §1
# [35] = target: Neu5Ac(a2-3)Gal(b1-3)[Fuc(a1-4)]GlcNAc(b1-3)Gal(b1-4)[Fuc(a1-3)]GlcNAc
# In short: as §1
# [36] = target: Neu5Ac(a2-3)Gal(b1-3)[GlcNAc(b1-6)]GalNAc
# In short: as §1
# [37] = target: Neu5Ac(a2-3)Gal(b1-3)[Neu5Ac(a2-6)]GalNAc
# In short: as §1
# [38] = target: Neu5Ac(a2-3)Gal(b1-3)[Neu5Ac(a2-6)]GlcNAc(b1-3)[Fuc(a1-3)[Gal(b1-4)]GlcNAc(b1-6)]Gal(b1-4)Glc
# In short: as §1
binder,measurement,setting,value
B1,glycan array binding signal (z-score),[1],0.372
same,glycan array binding signal (z-score),[2],-0.139
same,glycan array binding signal (z-score),[3],-0.48
same,glycan array binding signal (z-score),[4],-0.46
same,glycan array binding signal (z-score),[5],-0.364
same,glycan array binding signal (z-score),[6],-0.33
same,glycan array binding signal (z-score),[7],-0.444
same,glycan array binding signal (z-score),[8],-0.064
same,glycan array binding signal (z-score),[9],0.109
same,glycan array binding signal (z-score),[10],-0.179
same,glycan array binding signal (z-score),[11],-0.368
same,glycan array binding signal (z-score),[12],0.77
same,glycan array binding signal (z-score),[13],0.34
same,glycan array binding signal (z-score),[14],-0.379
same,glycan array binding signal (z-score),[15],0.118
same,glycan array binding signal (z-score),[16],-0.276
same,glycan array binding signal (z-score),[17],0.15
same,glycan array binding signal (z-score),[18],-0.547
same,glycan array binding signal (z-score),[19],0.045
same,glycan array binding signal (z-score),[20],-0.023
same,glycan array binding signal (z-score),[21],0.092
same,glycan array binding signal (z-score),[22],-0.151
same,glycan array binding signal (z-score),[23],-0.26
same,glycan array binding signal (z-score),[24],-0.168
same,glycan array binding signal (z-score),[25],0.029
same,glycan array binding signal (z-score),[26],-0.225
same,glycan array binding signal (z-score),[27],-0.206
same,glycan array binding signal (z-score),[28],-0.335
same,glycan array binding signal (z-score),[29],0.073
same,glycan array binding signal (z-score),[30],-0.58
same,glycan array binding signal (z-score),[31],-0.506
same,glycan array binding signal (z-score),[32],-0.002
same,glycan array binding signal (z-score),[33],0.02
same,glycan array binding signal (z-score),[34],0.007
same,glycan array binding signal (z-score),[35],-0.137
same,glycan array binding signal (z-score),[36],0.214
same,glycan array binding signal (z-score),[37],-0.357
same,glycan array binding signal (z-score),[38],0.417
